Sequences and labels used below:
B1: LINE1-mini (parent)
chain: GGCAGAGCUCAACACAGCGUGGCAAAGUGGCUGUGGCUAGACUGCC

The source gives no read counts; variants with many changes may rest on few reads.

This series covers variants of B1. Description: self-cleavage, relative activity (ratio to wild type); higher = more cleavage; in vitro, sequencing; the parent is a self-cleaving ribozyme.
In the case of G5U G21A U28A G30U A39U, the self-cleavage came to 0.05. To C10U C31U G35U belongs 0.07. To G33U U34G A41G belongs 0.05; to A12G G19U G33C A41U C42A, 0; to C18U G22C G35C, 0.

Turning to G2U A6G C10U G17A C31G G36A G44U, the self-cleavage was determined as 0.01. To A14U C37G A39C G44A belongs 0.04. To A4G G5C C15G C18U belongs 0.04. To A4U U9C G21U C45A belongs 0.03. C13U A16G G17U G33A C42U: the self-cleavage came out at 0.01. To G33U C42A U43G G44A belongs 0.06; to G2U A6G G7A A26U G30C, 0.04.

Take C23G U32A G35A G36A: the self-cleavage is 0.09. To C3A U28G G33U C42U belongs 0.26; to C15G G21C A26G, 0.08; to G2C A11U A24U, 0.03. To A6C U9G C13A C18A C31U G36C belongs 0.03; to C10A C37A C46A, 0.05; to C8A C23U U38G, 0.02.

As to G2U U43C C45U, the self-cleavage stood at 0.04.

As to C3U U9C C13G C45U, the self-cleavage amounted to 0.01. To A6G A26U C45A belongs 0.15; to A4C A24U U38C, 0.07; to U9G A11C U32A, 0.01.

As for C23A C37U C45U, the self-cleavage came out at 0.04.

Take C3G C15U A25C G33U: the self-cleavage was found to be 0.17. To G17A G27C U32A G33A G35U belongs 0.03; to A6C G7U U20G A26G G29C G30C A39U C42A, 0.02. With A14C G17A U34C the figure was 0.09; with G7C C8A U9G C13U C23A C42A, 0.02; with C10U A41G C46A, 0.04. On to G2C A11G G22C, for which the self-cleavage came to 0.01. To G2C G7U A16C C18A U20A C23U A26U C31G belongs 0.

Regarding U9A A26U G27U, the self-cleavage turned out to be 0.23. To C8G G29A C31U belongs 0.22. To G5U A14U A26G belongs 0.02. With G5U U9A G36C the figure was 0.02. G2A C8A C10A A12U C18G G30C: the self-cleavage was 0.01. With G1C C3G A4C A16U U38G G40A U43G the figure was 0.08. With A11C C23A A24U G33A the figure was 0.01; with G2A C10G U20G G40C, 0.01. On to A16G A25C U38A A39C, for which the self-cleavage was 0.17.

For A6U A14U A16C C18G A24U U38G U43C C45U, the self-cleavage came out at 0.3.

Take U9C C18G G21U: the self-cleavage came out at 0.02. With A11U C23A C31G the figure was 0.01; with G2C G19A C45G C46U, 0.09; with G1C C8G A16G A26C C37U, 0. To G17U G29A C42U belongs 0; to A16G C23G C42G, 0.02.

For A16U C18U G36C C37A, the self-cleavage came to 0.02. To C8U A11C G22A C23A C37A belongs 0.01; to G7A A24G A26U, 0.16.

G21C A39C G44A: the self-cleavage was determined as 0.06. With A11C A16G G29A the figure was 0.01; with G1C C37U U38A, 0.04; with G7C A16C G17A G21U C37G U43A, 0.03. With C18A A24U C31U G33C G40A the figure was 0.03; with C3A U9C C31U, 0.03. For the variant C13U U20C G40U C45G, the self-cleavage was determined as 0.05. To G7A C18U U28C belongs 0.01; to C10U A25C U34A C45A, 0.06; to A11G C15A A24C, 0.02. To C15A G30U A41C belongs 0.03; to C3G G21C G29A, 0.02. With C10G A12G C15A A25C G27C G33A C46A the figure was 0.

In the case of A6U G7A A26G C46A, the self-cleavage came to 0.05. With A12C G22U G29U the figure was 0.06. With C10U A11U U43C the figure was 0.01; with C8U U9A G19A G30C G44C, 0.03.

For G2A U9C C10A, the self-cleavage amounted to 0.02. In the case of G5A G17U C31A, the self-cleavage was found to be 0.08. With G22C C23G G27U U32G U34G the figure was 0.12; with G2A A12C C37A U38A G40A, 0.03. Regarding C15U G22U U43A C46A, the self-cleavage is 0.03. In the case of A14U A24C C46G, the self-cleavage worked out at 0.03. To C3U A4G C10U G40C belongs 0.05; to C15G A16U G22U U32A, 0.14; to C3A A11G C15G G36C A41U, 0.01. Take U9G G36A U38G: the self-cleavage amounted to 0.05. To G27C G29A G35C belongs 0.03; to G5U A12C C42U, 0.01; to G7A C8U C18U G29A C37U, 0.16. To G5U C13A G21A G33C U34G belongs 0.07; to C3U C10U A11U G40C C46U, 0. With C10G G17U G22A G30U the figure was 0.21. A14G G17A C23A A26G C42U U43A: the self-cleavage was found to be 0.01. To G21U C37G G44U belongs 0.07; to G5A G7U G44U, 0.61. With U20G C31G C46U the figure was 0.03; with U9G C23A G40U C45A, 0.14; with C31U A41G C42A, 0.01. With A11C C18G U32G the figure was 0.02. For G7C C15U A25G C45G, the self-cleavage turned out to be 0.02.

In the case of A16C C23G C37G G44A, the self-cleavage was determined as 0. With C15U C18G A26U the figure was 0.03; with C18G G19A G29A C37G, 0.05. With C8A G33U C45U the figure was 0.55. To C3U G7A U9A C15G G22U belongs 0.29; to G1U A24U G27C, 0.27; to G22U C37A U43C, 0.09. Turning to G22A A24G C31G G40C G44C, the self-cleavage was 0.1.

For the variant C3A C10G C13A, the self-cleavage worked out at 0.06. For G2C G17A G19A G36U, the self-cleavage was determined as 0.12. With G5U G7U A14C C37U C45U the figure was 0.02; with G5U G22A G30C, 0.04.

With G2U C13U A25C G30U G35U A41U C45A, the self-cleavage amounted to 0.06. With A12C C15G G33C U38G the figure was 0. To C3U G22C G44U belongs 0.09; to C8G C10G A11U, 0.02. With G5C C10A G19U A26G G27U the figure was 0.05. Turning to A4C G5U G30U G40C U43A, the self-cleavage is 0.06.

For the variant A14U A25G A39C G44A, the self-cleavage was found to be 0.01. With C8G U20G G21U G29A C37A the figure was 0.11; with A6G C8G G44U, 0.02. With G2U A6G C37A, the self-cleavage worked out at 0.05. Turning to G2C C8G A39U, the self-cleavage worked out at 0.04.

As for A6G G27A U28A C45U, the self-cleavage worked out at 0.07.

For G5A C13U C15G A16U A25G A39U A41U, the self-cleavage was 0.03. Turning to U9G G17A C18U C37U A39U G40U, the self-cleavage turned out to be 0.01. Consider G21A U34C A39U, for which the self-cleavage worked out at 0.11. To G5U C8A C13A U32A belongs 0.03.

As to A14G G19C G27C, the self-cleavage was determined as 0.26. For A11U C18G C46G, the self-cleavage stood at 0.05. Take C3A C15A C23U: the self-cleavage is 0.31. To A6G U32A C37G belongs 0.05; to G2C U9A A12U G35A, 0.2; to G5C A25U G33C, 0.03.

Take C37A A39U C45U: the self-cleavage amounted to 0.02.

With C8G C10A C13U C31G, the self-cleavage was determined as 0.03. To C3U A16C G33U U38A C42A belongs 0.06.

For G2A G19C U20C U32G G33C C42A, the self-cleavage stood at 0.07.

For the variant U32C U34A G44C C45U, the self-cleavage came to 0.04. To G2A A6G U9A G17A belongs 0.07; to G1U A6U A12G, 0.04.

In the case of G7U C31A U38G, the self-cleavage was found to be 0.01. To C18G G22U A26C belongs 0.63; to C13G G27C G30C G44A, 0.03; to C3A C23G G36A C37A U38C, 0.24. Take G1A G17A C23U U34C G35A G36A G44A C45U: the self-cleavage stood at 0.01.

Take C13A G22U A24C C42U C46A: the self-cleavage came out at 0.02. With G17A C18G U20A, the self-cleavage turned out to be 0.08.

Take A11G A14G G19A C23A: the self-cleavage is 0.02. As to C10U U20C A39C, the self-cleavage was 0.02.

Turning to A14U C18A U43A C45U C46A, the self-cleavage was 0.03. Take C10A C15U C23G: the self-cleavage came to 0.1. As for A14C A25G C37G, the self-cleavage turned out to be 0.41. For the variant G2A G5A C10A, the self-cleavage worked out at 0.11. With C3U A16G G30U C37A the figure was 0.16; with G7A C13A G22C U32C, 0.03; with A14C C15U G29A G35C G40U C42U, 0.02.

Consider C10A C13G G33A U43A, for which the self-cleavage was 0. With A16G G22A U28A C42U, the self-cleavage was 0.02. To A4C A11C A26U C45G belongs 0.01; to G22C G33C C42G G44U, 0.02; to G21U G40C C45A, 0.47.

Turning to G1U A12C G21C, the self-cleavage worked out at 0.01. U9A C10A G22A G30C G35C: the self-cleavage was found to be 0.02. To U34C C42A U43C belongs 0.09; to A14C G30U C45G, 0.04.

For C18A C23G G27A, the self-cleavage is 0.19. Take G1U G19U C46U: the self-cleavage stood at 0.44. To C10G C15A G17C A39G G40C belongs 0. With A6U C10G G33U the figure was 0.01; with C3U G27U C46U, 0.17; with C10U G27C G33U C37U C42U, 0.02.

Regarding G2U U20G G33U G35A G40A, the self-cleavage is 0.01. To A4C C13A G21A belongs 0.14.

These data come from the RNAGym collection of RNA variant scans (doi:10.7554/elife.90254).
